# In the supplement of paper PMC7826260:
# The other results are listed elsewhere or left out. Each Rep nickase domain was tested in vitro on the same pool of single strands (3 µM enzyme, 1 h, 37 °C); shown is the middle of each 90-letter strand. The score is log2 (uncut reads / reads without enzyme); more negative means more cut, near 0 not cut, and no call is made. Shares of all reads are compared; values above 0 arise when much of the pool is cut.
# Tests used:
# Assay in all cases: uncleaved DNA left, log2 of reads against the no-enzyme library (log2 ratio); higher = less cleavage (more negative = more Rep cleavage of the k-mer); sequences stand for … in CTCGTCCG…ACCGGAGA
# [1] = system: T1, Rep nickase domain of Muscovy duck circovirus
# T1 sequence (protein, residues 1-111, tag omitted): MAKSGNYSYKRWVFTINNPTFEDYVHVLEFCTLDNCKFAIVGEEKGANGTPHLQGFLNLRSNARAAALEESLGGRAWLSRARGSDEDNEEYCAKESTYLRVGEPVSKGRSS
# Protocol: (§1)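 A pool of 90-nt single-stranded DNAs with seven random bases just before the constant AC of the nick site (name = the seven bases) was cut by 3 µM recombinant His6-SUMO-tagged Rep nickase domain (300 nM DNA, 50 mM HEPES pH 8.0, 50 mM NaCl, 1 mM MnCl2, 1 h, 37 °C, three replicates). Uncut DNA was amplified and sequenced.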
# [2] = system: T2, Rep nickase domain of banana bunchy top virus
# T2 sequence (protein, residues 1-94, tag omitted): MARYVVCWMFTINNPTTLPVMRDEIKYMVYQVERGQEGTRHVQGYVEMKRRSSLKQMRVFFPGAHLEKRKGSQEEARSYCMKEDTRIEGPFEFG
# Protocol: as §1
# [3] = system: T3, Rep nickase domain of cabbage leaf curl virus
# T3 sequence (protein, residues 1-116, tag omitted): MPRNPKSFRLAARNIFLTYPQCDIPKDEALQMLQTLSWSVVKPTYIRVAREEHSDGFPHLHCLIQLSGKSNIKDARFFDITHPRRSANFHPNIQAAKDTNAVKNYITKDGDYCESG
# Protocol: as §1
# [4] = system: T4, Rep nickase domain of chickpea chlorotic dwarf virus
# T4 sequence (protein, residues 1-124, tag omitted): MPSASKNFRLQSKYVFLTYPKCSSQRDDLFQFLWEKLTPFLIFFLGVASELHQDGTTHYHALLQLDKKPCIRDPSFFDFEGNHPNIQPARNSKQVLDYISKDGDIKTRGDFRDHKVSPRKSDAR
# Protocol: as §1
# [5] = system: T5, Rep nickase domain of faba bean necrotic yellows virus
# T5 sequence (protein, residues 1-98, tag omitted): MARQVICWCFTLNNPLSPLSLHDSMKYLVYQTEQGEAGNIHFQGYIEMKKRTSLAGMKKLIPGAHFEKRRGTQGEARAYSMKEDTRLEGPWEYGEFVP
# Protocol: as §1
# [6] = system: T6, Rep nickase domain of maize striate mosaic virus
# T6 sequence (protein, residues 1-117, tag omitted): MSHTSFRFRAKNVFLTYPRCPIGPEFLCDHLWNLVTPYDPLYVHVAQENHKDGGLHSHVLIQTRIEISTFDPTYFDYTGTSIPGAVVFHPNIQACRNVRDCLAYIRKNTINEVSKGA
# Protocol: as §1
# [7] = system: T7, Rep nickase domain of porcine circovirus 2
# T7 sequence (protein, residues 2-116, tag omitted): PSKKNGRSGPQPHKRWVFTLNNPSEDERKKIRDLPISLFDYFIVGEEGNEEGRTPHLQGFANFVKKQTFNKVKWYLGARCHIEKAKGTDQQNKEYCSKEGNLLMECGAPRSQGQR
# Protocol: as §1
# [8] = system: T8, Rep nickase domain of tomato yellow leaf curl virus
# T8 sequence (protein, residues 1-136, tag omitted): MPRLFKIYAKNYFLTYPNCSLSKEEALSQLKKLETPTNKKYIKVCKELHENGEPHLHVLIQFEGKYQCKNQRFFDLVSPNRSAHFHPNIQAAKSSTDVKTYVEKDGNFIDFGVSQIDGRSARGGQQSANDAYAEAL
# Protocol: as §1
# [9] = system: T9, Rep nickase domain of wheat dwarf virus
# T9 sequence (protein, residues 1-137, tag omitted): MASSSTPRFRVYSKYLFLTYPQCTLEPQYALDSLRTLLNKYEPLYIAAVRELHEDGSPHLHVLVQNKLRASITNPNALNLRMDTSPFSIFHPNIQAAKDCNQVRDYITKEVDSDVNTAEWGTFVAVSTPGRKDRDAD
# Protocol: as §1
Sequence,uncleaved DNA left (log2) [1],uncleaved DNA left (log2) [2],uncleaved DNA left (log2) [3],uncleaved DNA left (log2) [4],uncleaved DNA left (log2) [5],uncleaved DNA left (log2) [6],uncleaved DNA left (log2) [7],uncleaved DNA left (log2) [8],uncleaved DNA left (log2) [9]
TCGCCGA,-0.0241,-0.0334,-0.488,-0.494,0.0524,-0.915,0.0208,-0.0678,-0.152
TTGACTC,0.0204,0.0201,0.12,0.318,-0.0316,0.37,0.0539,-0.0237,0.117
AAGTCGC,-0.109,-0.0664,-0.745,-0.99,-0.0263,-1.04,-1.36,-0.0646,-0.139
ACGCCAC,-0.0681,-0.16,-0.263,-0.457,-0.0937,-0.525,-0.0405,-0.168,-0.0203
GCGTGCT,-0.275,0.00623,-0.433,-0.474,-0.146,-0.503,-2.33,0.00658,-0.341
ACAAAGT,0.0955,0.0291,-0.0722,-0.458,0.137,-1.06,0.208,0.0577,0.00975
GTTAGCT,-0.078,-0.0293,0.0862,0.283,-0.0859,0.412,0.0538,-0.102,-0.0661
TCCACCA,-0.14,-0.0419,0.108,-1.51,-0.0291,-0.391,-0.407,0.0528,-0.0549
TCGTTCA,-0.0574,-0.0375,0.0576,-0.804,-0.189,-0.258,-0.395,-0.0686,0.00348
CACGTGT,0.0592,-0.0373,-0.345,-0.787,0.0178,-0.508,-0.0821,-0.0387,-0.162
AGAACAC,0.0113,0.104,0.18,0.191,0.0585,0.289,0.105,0.0616,0.159
TACATAA,-0.0639,-0.0789,-0.319,-1.22,-0.139,-0.796,-0.174,-0.041,-0.0124
GACGTAG,0.12,-0.104,-0.0491,0.11,-0.0921,-0.223,0.157,-0.0264,-0.0296
CAGACGT,0.103,-0.0151,0.0701,0.2,-0.0384,-0.299,-1.17,0.0147,-0.00184
GTACCCA,0.035,0.103,0.355,0.67,0.0209,1.56,-0.107,0.0842,0.16
CTGGCGA,0.04,-0.157,-0.649,-0.323,0.00882,-0.649,0.117,0.0768,-0.103
TCGTTTC,-0.0328,-0.111,0.106,0.0297,-0.162,-0.564,-0.236,-0.123,-0.162
AAAGACG,0.0364,0.19,-0.324,-0.393,0.0546,-1.1,0.207,0.121,0.113
CCCGGGC,0.0649,0.0916,0.323,0.86,-0.00482,1.01,0.118,-0.0205,0.0431
CAATTCT,-3.9,-0.605,-4.36,-3.6,-0.103,-3.59,-3.92,-0.452,-3.95
TGAAGCG,0.0105,0.0328,-0.727,0.268,0.0845,-0.841,0.193,0.0682,-0.02
GGACATT,0.156,0.0943,0.791,1.95,-0.0217,2.27,0.138,-0.0397,0.253
TATGGGA,0.144,-0.0342,0.265,0.492,0.106,-0.0456,0.11,0.0531,0.0668
ATTGAGG,0.163,0.171,0.377,1.04,0.0743,0.513,0.282,0.156,0.147
TGTCAAA,-0.0804,-0.0554,0.197,0.499,-0.121,0.339,-0.0803,-0.0207,0.096
GAAGGCA,0.0612,0.0658,0.421,0.843,-0.0182,0.754,0.102,0.0392,0.00678
CCCTAAG,0.173,0.137,-0.636,0.0364,0.122,-0.927,0.259,0.326,0.0448
GATGATG,0.0915,-0.0332,-0.0138,0.268,0.0855,-0.02,0.0711,0.085,0.0493
TCCGATA,-0.00354,-0.0112,0.0245,-0.416,0.0327,-0.0395,-0.208,-0.0443,-0.0718
TACCCGC,-0.0787,-0.092,-0.498,-1.17,-0.0685,-1.04,-0.822,-0.127,-0.14
